Measured values as given in PubChem BioAssay AID488969 (Vanderbilt High Throughput Screening Facility, 2010).
Over roughly 110,000 compounds, “z-score” has its median near -0.1; the highest 2% begin near 2. The list shows a part of the results. Activity calls are given as the source filed them.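 Rule for the calls: active = z-score in the third read window above 3 or below -3; inactive = the rest.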

target: Metabotropic glutamate receptor 8 (Rattus norvegicus) (UniProt P70579); assay: mGluR8 Gi/Go-coupled signaling modulation – cell-based, rat, thallium flux, HTS, primary screen (AID 488969); conditions: HEK293 rat mGluR8, GIRK (G protein-gated inwardly rectifying potassium channel) thallium flux, FluoZin2; at 10 µM; stronger effect = higher value; submaximal glutamate (EC20) added with thallium
UniProt P70579, sequence (P70579 whole entry, looked up): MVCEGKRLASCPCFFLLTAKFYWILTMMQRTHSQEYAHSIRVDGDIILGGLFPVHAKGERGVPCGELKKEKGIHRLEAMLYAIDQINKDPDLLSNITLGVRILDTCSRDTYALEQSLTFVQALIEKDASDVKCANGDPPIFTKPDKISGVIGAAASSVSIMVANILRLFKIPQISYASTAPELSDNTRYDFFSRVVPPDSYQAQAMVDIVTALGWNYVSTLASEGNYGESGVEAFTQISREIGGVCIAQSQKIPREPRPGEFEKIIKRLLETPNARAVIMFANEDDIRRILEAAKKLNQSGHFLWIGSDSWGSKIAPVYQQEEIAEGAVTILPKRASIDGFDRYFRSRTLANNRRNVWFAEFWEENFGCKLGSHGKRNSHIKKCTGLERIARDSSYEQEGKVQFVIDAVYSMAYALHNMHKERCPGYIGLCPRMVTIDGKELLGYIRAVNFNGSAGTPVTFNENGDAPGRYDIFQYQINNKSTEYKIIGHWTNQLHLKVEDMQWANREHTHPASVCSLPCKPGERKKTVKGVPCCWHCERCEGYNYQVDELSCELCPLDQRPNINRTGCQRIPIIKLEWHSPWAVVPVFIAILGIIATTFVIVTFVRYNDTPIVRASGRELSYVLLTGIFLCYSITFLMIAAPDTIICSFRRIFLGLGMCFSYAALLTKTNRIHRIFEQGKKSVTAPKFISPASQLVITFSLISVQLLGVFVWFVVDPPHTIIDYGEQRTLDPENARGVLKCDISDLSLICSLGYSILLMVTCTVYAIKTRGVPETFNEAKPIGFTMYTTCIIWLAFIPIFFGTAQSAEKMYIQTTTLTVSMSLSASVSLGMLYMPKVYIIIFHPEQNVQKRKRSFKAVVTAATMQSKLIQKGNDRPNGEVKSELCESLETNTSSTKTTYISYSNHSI

| Compound | z-score |
| --- | --- |
| CCCCP(=O)(CCCC)Cc1ccccc1 | -0.216 |
| Cc1ccc(S(=O)(=O)NC(=O)N2CCC(C)CC2)cc1 | 1.01 |
| O=C(CCSc1ccc(Cl)cc1)N1CCN(c2ncccn2)CC1 | -0.0871 |
| CCOC(=O)c1ccc(N=C2NC(=O)CS2)cc1 | 0.412 |
| O=C(CSCC(=O)NC1CC1)Nc1ccc2ccccc2c1 | 0.16 |
| O=C(OCC(=O)c1cccs1)C1=COCCO1 | 1.34 |
| S=C(c1ccc2c(c1)OCO2)N1CCCC1 | 0.134 |
| COCCNC(=O)c1ccc2c(c1)nc(C)n2-c1cccc(F)c1 | -0.117 |
| Cn1c(=O)n(CCc2ccccc2)c(=O)c2c1nc1n2CCCN1c1ccccc1 | -0.316 |
| CCCCCCCCCCOC(=O)C[N+](C)(C)C/C=C(/C)Cl | -0.157 |
| Cc1cccn2c(/C=N/OCc3cccc(F)c3)c(-c3ccc(Cl)cc3)nc12 | 0.118 |
| Cc1ccc(/C=N\NC(=O)C2CN(S(=O)(=O)c3ccccc3)CCN2S(=O)(=O)c2ccccc2)cc1 (stereo unspecified) | -0.151 |
| CCCN1C(=O)/C(=C/c2ccco2)SC1=Nc1ccc(OC)cc1 | -0.105 |
| COc1ccccc1C1C(C#N)=C(N)Oc2cc(C)n(CCCn3ccnc3)c(=O)c21 (stereo unspecified) | -0.181 |
| C=CCn1c(SCC(=O)Nc2sc(C)c(C)c2C(=O)OCC)nnc1-c1sc(N)nc1C | active: -3.37 |
| O=C(Oc1ccc(-c2cnc3ccccc3n2)cc1)c1cc([N+](=O)[O-])ccc1Cl | -1.5 |
| CC1CCN(C(=O)c2cc3nc(C4CC4)cc(C(F)(F)F)n3n2)CC1 | -0.466 |
| O=C(Nc1ccc(Cl)cc1)OCc1cc(-c2ccccc2Cl)on1 | -0.0883 |
| CCC(=O)Nc1ccc(NC(=O)/C=C/c2ccc(Cl)cc2)cc1 | -0.359 |
| O=C(/C=C/c1cccc(Br)c1)NCC1CCCCC1 | -0.276 |
| CN(C)CCNc1oc(COc2ccc(-c3ccccc3)cc2)nc1C#N | 2.06 |
| CC1CC(=S)Nc2ccccc2N1Cc1ccccc1 (stereo unspecified) | 1.32 |
| Cc1cc(Cl)c(S(=O)(=O)N2CCN(c3ccc(F)cc3)CC2)cc1OCC(N)=O | -0.206 |
| O=C(COc1ccc2c(c1)OCO2)Nc1ccc2c(c1)oc1ccccc12 | 0.219 |

| Compound | z-score |
| --- | --- |
| Cc1cc(Oc2nc3c(C)cccn3c(=O)c2/C=C(\C#N)S(=O)(=O)c2ccccc2)ccc1Cl | -0.183 |
| Cc1ccc(N=Cc2nc(/C=C/c3cccc([N+](=O)[O-])c3)oc2O)cc1 | -0.0691 |
| Cc1cc(C)nc(SCc2nc3ncccn3c2Br)n1 | -0.841 |
| Cc1nn(C(=O)c2ccco2)c(C)c1Sc1ccc(Br)cc1 | 0.0785 |
| C(=N\Nc1nc(-c2ccccc2)cs1)/c1ccco1 | 0.0633 |
| O=C(NCc1cccc(F)c1)c1ccc(N2C(=O)Cn3c(cc4sccc43)C2=O)cc1 | -0.123 |
| COc1ccc(CCNC(=O)c2cc(C(=O)c3cc(Cl)ccc3O)cn(CCc3ccc(OC)cc3)c2=O)cc1 | 0.492 |
| O=C(/C=C/c1ccc2c(c1)OCO2)NCCSCc1cccc(Cl)c1 | -0.166 |
| NC(=O)c1ncc(C(F)(F)F)cc1Oc1ccc(F)cc1 | -0.256 |
| Cc1cccc(OCC(=O)NC(=S)Nc2ccccc2N2CCOCC2)c1 | active: 3.14 |
| CCOC(=O)c1cnc(Nc2nc3ccccc3o2)nc1CSC(=S)N1CCCCC1 | 0.0266 |
| CCOC(=O)N1CCN(/C=C(\C#N)c2nc3ccccc3s2)CC1 | 1.73 |
| CC1CCN(Cc2cnc(Cl)s2)CC1 | 0.0467 |
| COc1ccc(-c2cc(C(F)(F)F)nc(SCC(=O)NCc3cccs3)n2)cc1 | -0.253 |
| COc1cc2c(cc1OC)C(C(=O)O)C(c1cc(Br)c(O)c(OC)c1)N(C)C2=O (stereo unspecified) | -0.372 |
| COc1ccc(S(=O)(=O)Oc2ccc3ccccc3c2)cc1 | -0.0921 |
| CCOc1cccc(OCCCOc2cccc3cccnc23)c1 | 0.0282 |
| O=S(=O)(Nc1ccc(O)c(Sc2nc3ccccc3s2)c1)c1cccc2ccccc12 | -0.254 |
| CCc1nnc(NS(=O)(=O)c2ccc(NS(=O)(=O)c3ccc(NC(C)=O)cc3)cc2)s1 | -0.14 |
| O=C1CN(C(=O)COc2ccc(Br)cc2F)c2ccccc2N1 | -0.567 |
| O=C(/C=C/c1ccccc1Cl)c1cccnc1 | -1.07 |
| COc1cc(C(=O)OCCN2CCOCC2)cc(OC)c1OC | -0.284 |
| Cc1cccc(-c2ccc(C=Nc3c(C)n(C)n(-c4ccccc4)c3=O)o2)c1 | -0.313 |
| CCN(CC)S(=O)(=O)c1cccc(C(=O)NC2CCCCC2)c1 | 0.138 |

| Compound | z-score |
| --- | --- |
| CCCC(c1nnnn1Cc1ccc(OC)cc1)N1CCN(c2ccccc2OC)CC1 (stereo unspecified) | -0.369 |
| Cc1c(NC(=O)c2nn(C)c(=O)c3ccccc23)c(=O)n(-c2ccccc2)n1C | -0.208 |
| Cc1cccc(NCc2nc3ccccc3n2Cc2ccccc2)c1 | -1.03 |
| O=C1OC(OC2CCCCC2)(c2ccccc2)c2ccccc21 (stereo unspecified) | 0.227 |
| COC(=O)CCCC(=O)Nc1ccc(Cl)c(Cl)c1 | 0.876 |
| Cc1cc(C(=O)Nc2c(C)nn(Cc3ccc(F)cc3)c2C)on1 | -0.239 |
| CC1CCCC(NC(=O)COC(=O)CN2C(=O)C3CCCCC3C2=O)C1C (stereo unspecified) | 0.0235 |
| O=C1NC2(NN1c1ccccc1)C1CC3CC(C1)CC2C3 (stereo unspecified) | 1.02 |
| COc1ccc(-c2nnc(SCCC(=O)O)n2-c2ccccc2)cc1 | -0.00399 |
| C/C(=N\NC(=O)C(C)Oc1ccc([N+](=O)[O-])cc1)c1ccccn1 (stereo unspecified) | -0.0172 |
| O=c1c2ccccc2nc(-c2ccco2)n1/N=C/c1ccccc1O | -0.0515 |
| N#CCCNc1ccc(OCCC#N)cc1 | 0.0784 |
| CC(C)OP(=O)(OC(C)C)C(Nc1ccccc1)c1cccc2c1OCO2 (stereo unspecified) | -0.329 |
| N#Cc1ccc(-c2ccc3c(c2)OCO3)nc1SCC(=O)OCc1ccccc1 | 1.02 |
| CCOc1cc(C)c(C(C)C)cc1S(=O)(=O)N1CCOCC1 | -0.135 |
| C=CCNCCCCOc1ccccc1 | -0.066 |
| Cn1c(C(=O)N2CCc3ccccc3C2)cc2c(=O)n3ccccc3nc21 | -0.835 |
| NNC(=O)COc1cccc2cccnc12 | -0.0578 |
| Cc1ccc(S(=O)(=O)N(C)C)cc1NC(=S)NNC(=O)C1CC1 | -0.0228 |
| Cc1ccc(-n2nc(C)c3c(C)cc(=O)[nH]c32)cc1 | -0.176 |
| CCOc1ccc(NC(=O)Cn2nnc(C(=O)NCc3ccco3)c2N)cc1 | 0.4 |
| CCN1CCN(CCNC(=O)c2ccc(CS(=O)(=O)c3c(Cl)cccc3Cl)o2)CC1 | -0.55 |
| Clc1ccc(C2=NNC(=NCc3ccc4c(c3)OCO4)SC2)cc1 | 0.213 |
